Measured values as given in PubChem BioAssay AID504333 (National Center for Advancing Translational Sciences (NCATS), 2011).
The whole screen tested about 360,000 compounds, of which about 16,000 (4.4%) were called active. The inconclusive results got no clear call from the source; some entries with a clear call stand among them for comparison. Calls come from the whole dose curve; as a rule, active = well fitted inhibition curve with a large enough effect; inconclusive = small, poorly fitted or top-dose-only effect; inactive = no such curve, though single readings can be large or run the other way. A potency beside an inconclusive call is a rough fit, not a confirmed value.

biological target: Bromodomain adjacent to zinc finger domain protein 2B (Homo sapiens) (UniProt Q9UIF8); assay: qHTS Assay for Inhibitors of BAZ2B; details: AlphaScreen BAZ2B-H3K14Ac peptide displacement; activity change, negative = inhibition: at 114 µM (top of the series); note: nearly all actives have a fitted effect of over 60% in size
Sequence of UniProt Q9UIF8 (Q9UIF8 whole entry, looked up, the tested form may be a part): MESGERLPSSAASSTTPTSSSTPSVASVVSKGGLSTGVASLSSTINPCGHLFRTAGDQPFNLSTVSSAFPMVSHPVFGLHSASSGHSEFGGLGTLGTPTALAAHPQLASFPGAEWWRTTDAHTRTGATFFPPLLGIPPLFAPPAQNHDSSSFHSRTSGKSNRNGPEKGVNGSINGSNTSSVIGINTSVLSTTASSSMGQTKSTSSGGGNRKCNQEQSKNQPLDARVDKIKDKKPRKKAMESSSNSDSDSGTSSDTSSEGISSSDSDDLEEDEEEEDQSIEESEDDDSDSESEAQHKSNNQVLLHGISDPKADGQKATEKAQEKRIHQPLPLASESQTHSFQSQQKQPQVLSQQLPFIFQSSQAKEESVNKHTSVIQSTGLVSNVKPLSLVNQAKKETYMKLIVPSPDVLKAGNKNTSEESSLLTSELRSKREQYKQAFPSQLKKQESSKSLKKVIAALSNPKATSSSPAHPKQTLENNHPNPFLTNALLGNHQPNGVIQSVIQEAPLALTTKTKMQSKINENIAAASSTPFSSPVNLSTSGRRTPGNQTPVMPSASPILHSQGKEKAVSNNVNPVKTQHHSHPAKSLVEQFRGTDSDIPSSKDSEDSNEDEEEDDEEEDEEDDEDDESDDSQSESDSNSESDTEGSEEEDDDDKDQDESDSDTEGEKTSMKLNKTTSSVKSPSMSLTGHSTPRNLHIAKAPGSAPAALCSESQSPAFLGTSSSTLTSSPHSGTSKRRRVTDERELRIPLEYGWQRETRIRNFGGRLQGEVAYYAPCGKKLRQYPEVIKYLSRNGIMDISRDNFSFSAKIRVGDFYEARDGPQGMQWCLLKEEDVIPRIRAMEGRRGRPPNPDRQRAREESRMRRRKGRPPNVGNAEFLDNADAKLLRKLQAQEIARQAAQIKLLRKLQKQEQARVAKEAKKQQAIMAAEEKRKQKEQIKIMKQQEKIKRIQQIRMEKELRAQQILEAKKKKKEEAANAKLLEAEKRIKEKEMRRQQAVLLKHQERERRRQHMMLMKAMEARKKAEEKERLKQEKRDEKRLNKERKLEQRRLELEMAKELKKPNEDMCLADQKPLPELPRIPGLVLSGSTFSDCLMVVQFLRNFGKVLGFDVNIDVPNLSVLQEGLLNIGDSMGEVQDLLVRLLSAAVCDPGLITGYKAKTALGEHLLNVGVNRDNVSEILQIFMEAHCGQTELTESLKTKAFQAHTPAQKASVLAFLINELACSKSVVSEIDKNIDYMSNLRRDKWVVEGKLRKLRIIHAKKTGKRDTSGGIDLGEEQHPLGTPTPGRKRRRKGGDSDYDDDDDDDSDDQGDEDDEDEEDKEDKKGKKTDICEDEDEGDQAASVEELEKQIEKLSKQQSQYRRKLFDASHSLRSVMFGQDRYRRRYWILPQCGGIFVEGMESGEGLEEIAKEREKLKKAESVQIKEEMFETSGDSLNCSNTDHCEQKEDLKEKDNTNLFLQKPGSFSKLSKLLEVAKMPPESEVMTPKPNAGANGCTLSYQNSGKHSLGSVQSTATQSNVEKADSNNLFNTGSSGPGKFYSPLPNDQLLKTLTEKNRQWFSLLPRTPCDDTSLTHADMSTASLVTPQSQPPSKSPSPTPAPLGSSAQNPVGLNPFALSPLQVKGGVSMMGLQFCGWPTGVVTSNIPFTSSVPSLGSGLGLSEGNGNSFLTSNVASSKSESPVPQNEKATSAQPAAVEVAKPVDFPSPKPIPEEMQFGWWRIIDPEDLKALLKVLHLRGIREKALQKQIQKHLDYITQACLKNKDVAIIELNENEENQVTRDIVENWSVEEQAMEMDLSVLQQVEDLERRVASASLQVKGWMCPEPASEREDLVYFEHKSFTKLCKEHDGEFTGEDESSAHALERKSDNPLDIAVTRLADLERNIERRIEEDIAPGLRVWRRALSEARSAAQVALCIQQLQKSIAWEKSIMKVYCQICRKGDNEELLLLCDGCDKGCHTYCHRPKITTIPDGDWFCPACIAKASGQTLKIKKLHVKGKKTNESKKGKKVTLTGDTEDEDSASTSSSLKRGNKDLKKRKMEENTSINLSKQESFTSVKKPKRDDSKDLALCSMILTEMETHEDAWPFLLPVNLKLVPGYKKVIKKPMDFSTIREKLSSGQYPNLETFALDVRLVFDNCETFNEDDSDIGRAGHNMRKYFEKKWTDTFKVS
Procedure, shortened: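 BAZ2B 50 nM plus b-H3(5-23)K14Ac 50 nM, PBS pH 7.4/0.01% Tween-20, 30 min RT; compound added (max 110 uM), 30 min RT; streptavidin donor/Ni-chelate acceptor beads 10 ug/mL final, 20 min dark; AlphaScreen read.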
% is set by controls: 0 for no effect and ±100 for the full control effect; potency is the fitted concentration of half-maximal effect; tags give direction and shape of the fitted curve.

Compound	Potency	activity change, negative = inhibition
CN(C)c1ccc(S(=O)(=O)N2CCCCC2)cc1NC(=O)CN1C(=O)NC2(CCCC2)C1=O	inactive	–
CCOc1ccccc1N(CC(=O)N1CCCCCC1)S(C)(=O)=O	inactive	–
CCn1c(N)c(C(=O)NC2CCCCC2)sc1=S	inconclusive: 79.4 µM [inhibitor, single point]	–
COc1ccc(Cl)cc1C(=O)Nc1ccc2oc(-c3ccc(C(C)(C)C)cc3)nc2c1	inactive	–
CCOc1ccc(S(=O)(=O)N2CCN(S(=O)(=O)c3ccc(C(C)=O)cc3)CC2)cc1	inconclusive: 89.1 µM [inhibitor, single point]	–
Cc1cccc(NC(=O)C2CCN(S(=O)(=O)c3cccc4nonc34)CC2)c1	inactive	–
CCCCN(C)CC(O)Cn1cc(/C=C/C(=O)c2ccc(OC)c(OC)c2)c2ccccc21 (stereo not given)	inconclusive: 50.1 µM [inhibitor, partial curve]	–
Cc1ccc(-c2nc(S(=O)(=O)c3ccc(Cl)cc3)c(N3CCCCC3)o2)cc1	inconclusive: 8.91 µM [inhibitor, full curve]	–
CC(C)(C)C(=O)Nc1ncccc1C(O)c1cccc(C(F)(F)F)c1 (stereo not given)	inconclusive: 89.1 µM [inhibitor, single point]	–
c1coc(CNC2CCCCCCC2)c1	active: 89.1 µM	–
O=C(NCc1ccccc1)N1CCN(c2ccc(F)cc2)CC1	inactive	–
COc1ccc(NC(=O)Cc2csc(COc3cccc(C)c3)n2)cc1OC	inactive	–
N#C/C(=C\c1ccc(O)c(O)c1)C(=O)c1ccc(O)c(O)c1	active: 2.24 µM	–
COc1ccc(NC(=O)CN2C(=O)S/C(=C/c3cccn3-c3ccc(C(=O)O)cc3)C2=O)cc1	active: 17.8 µM	–
CCCNS(=O)(=O)c1ccc(CCC(=O)N2CCC(C)CC2)cc1	inconclusive: 11.2 µM [inhibitor, single point]	–
COc1ccc(OC)c(CNc2ccc([N+](=O)[O-])cc2C)c1	inconclusive: 20 µM [inhibitor, full curve]	–
Nc1[nH]n2c(=O)cc(-c3ccccc3)nc2c1N=Nc1ccc(S(N)(=O)=O)cc1	inconclusive: 35.5 µM [inhibitor, partial curve]	–
Cc1cc(OCn2ccc(C(=O)O)n2)ccc1Cl	inconclusive: 100 µM [inhibitor, single point]	–
COc1ccc(NC(=O)CN(C)CC(=O)Nc2ccc(Cl)cc2[N+](=O)[O-])cc1	inconclusive: 39.8 µM [inhibitor, partial curve]	–
COc1ccc(N2CCN(c3nc(NCCc4ccc(OC)c(OC)c4)nc(OC)n3)CC2)cc1	active: 39.8 µM	–
O=C(NN(c1ccccc1)c1ccccc1)c1ccc([N+](=O)[O-])o1	inconclusive: 44.7 µM [inhibitor, partial curve]	–
Cc1ccc2nc(Cl)c3cc(C(=O)NCCCN4CCC(C)CC4)sc3c2c1	inconclusive: 79.4 µM [inhibitor, single point]	–
O=c1c(Cl)c(NCc2ccccc2)cnn1C12CC3CC(CC(C3)C1)C2	inactive	–
CC1C(=O)Nc2ccc(S(=O)(=O)Nc3ccccc3Br)cc2NC1=O (stereo not given)	inconclusive: 3.55 µM [inhibitor, full curve]	–
Cc1cc(/C=N/O)c(C)n1-c1cccc(Cl)c1	active: 50.1 µM	–

Compound	Potency	activity change, negative = inhibition
O=C(NNC(=O)c1csc(N2CCOCC2)n1)c1ccc(Cl)nc1	inconclusive: 50.1 µM [inhibitor, partial curve]	–
O=C(/C=N/O)NCCCN1CCCCCC1	active: 50.1 µM	–
CC(/C=N/n1c(-c2ccccc2)n[nH]c1=S)=C\c1ccco1	active: 50.1 µM	–
Cc1cc(NC(=O)C(C)SCC(=O)OCc2ccc([N+](=O)[O-])cc2)no1 (stereo not given)	inactive	–
CCc1ccc(C(=O)/C=C/Nc2ccc(S(=O)(=O)Nc3onc(C)c3C)cc2)cc1	inconclusive: 44.7 µM [inhibitor, partial curve]	–
CSc1ccc(/C=N/n2c(C3CCCCC3)n[nH]c2=S)cc1	inconclusive: 44.7 µM [inhibitor, partial curve]	–
O=C(NCc1ccccc1Cl)c1ccc[nH]1	inactive	–
O=C(NC(=O)N1CCCC1)c1csnn1	inactive	–
Fc1cccc(Cl)c1CNc1n[nH]c(-c2ccco2)n1	inconclusive: 79.4 µM [inhibitor, single point]	–
CN(C)c1ccc(C(=O)OCC#CCSc2nnc(-c3cccc4ccccc34)o2)cc1	inactive	–
O=C(O)c1cc(-c2ccc(/C=N/N3C(=O)C4C5C=CC(CC5)C4C3=O)o2)ccc1Cl (stereo not given)	inactive	–
COC(=O)C1=C(C)N(c2ccc(C)c(C)c2)/C(=C/c2ccc(O)cc2)C1=O	inactive	–
N/C(=N\NC(=O)Nc1ccc(Cl)cc1)c1ccccn1	active: 15.8 µM	–
Cc1cc(C)c(S(=O)(=O)NC2CC(C)(C)NC(C)(C)C2)cc1C	–	inconclusive: -49.1% [inhibitor]
CCCN(C(=O)c1cc(-c2ccco2)nc2ccccc12)c1c(N)n(Cc2ccccc2)c(=O)[nH]c1=O	inconclusive: 89.1 µM [inhibitor, single point]	–
Cc1cc(C(=O)Nc2cccc3ccccc23)n(-c2ccccc2)n1	inconclusive: 100 µM [inhibitor, partial curve]	–
Cc1cc(/C=C2\SC(=S)NC2=O)cc(C)c1O	inconclusive: 39.8 µM [inhibitor, full curve]	–
CCCCC(=O)NC(=S)Nc1ccc(Cl)c(C(=O)O)c1	inconclusive: 89.1 µM [inhibitor, single point]	–
CC(C)NC(=O)c1ccc2c(=O)n(Cc3ccco3)c(=S)[nH]c2c1	inactive	–
O=C(CC(c1ccco1)C1CCCCC1=O)c1ccco1 (stereo not given)	inconclusive: 50.1 µM [inhibitor, partial curve]	–
O=c1c2cn[nH]c2nc(SCc2cc(=O)n3cc(Br)ccc3n2)n1-c1ccc(Br)cc1	inactive	–
Cc1ccc(CN2CCCn3nc(C(=O)NCc4ccccc4Cl)cc3C2=O)cc1	inactive	–
S=c1[nH]nc(-c2ccco2)n1/N=C/c1ccc(Cl)cc1Cl	inconclusive: 89.1 µM [inhibitor, single point]	–
Cc1cc(C(=O)Nc2ccc(S(=O)(=O)N3CCOCC3)cc2)ccc1[N+](=O)[O-]	inactive	–
COc1ccc(/C=C/c2nc(S(=O)(=O)c3ccccc3)c(NCCCN(C)C)o2)cc1OC	inactive	–

Compound	Potency	activity change, negative = inhibition
CCOc1ccc(CNCc2c(C(=O)O)c(C)n(Cc3ccc(F)cc3Cl)c2C)cc1	inconclusive: 70.8 µM [inhibitor, partial curve]	–
O=C(CSc1nnc(-c2ccco2)o1)c1ccc([N+](=O)[O-])cc1	inconclusive: 79.4 µM [inhibitor, single point]	–
Cc1ccc(N=C(N)N=C(N)N)c(C)c1	inconclusive: 79.4 µM [inhibitor, single point]	–
COc1ccc2ccccc2c1/C=N/Nc1ccc(Cl)c(C(=O)O)c1	inconclusive: 89.1 µM [inhibitor, single point]	–
COc1ccc(OC)c(-c2nc(C(N)=O)c3c(n2)n(-c2ccc4c(c2)OCO4)c(=O)n3C)c1	inactive	–
COc1ccc(NC(=O)CSc2nccn2Cc2ccc(F)cc2)cc1	inconclusive: 39.8 µM [inhibitor, partial curve]	–
COc1ccc(/C=C/C(=O)c2cc(Br)ccc(=O)c2O)cc1	active: 44.7 µM	–
COc1cc(NS(=O)(=O)c2cc3[nH]c(=O)c(=O)[nH]c3cc2C)cc(OC)c1OC	inconclusive: 89.1 µM [inhibitor, single point]	–
Cc1ccccc1NC(C)C(=O)N/N=C/c1ccccc1OCc1cccc(Br)c1 (stereo not given)	inactive	–
CC(C)(C)C(C(=O)n1cccc1C#N)c1ccccc1 (stereo not given)	inactive	–
CCOc1cc2[nH]c(=O)n(CCCC(=O)N(C)Cc3ccccc3)c(=O)c2cc1OCC	inactive	–
CCOC(=O)c1c(NC(=O)COC(=O)/C=C/c2ccco2)sc2c1CC(C)(C)NC2(C)C	inconclusive: 44.7 µM [inhibitor, partial curve]	–
O=C(NCCc1ccco1)C(=O)NCC1OCCCN1S(=O)(=O)c1ccc(Cl)cc1 (stereo not given)	inconclusive: 79.4 µM [inhibitor, single point]	–
CN(C)S(=O)(=O)c1ccc(Cl)c(NC(=O)C2CCN(S(=O)(=O)c3cccs3)CC2)c1	inactive	–
Cc1cc(C=O)c(C)n1-c1ccc(NC2CCCCC2)c([N+](=O)[O-])c1	active: 10 µM	–
CCc1ccc(OCC(O)CNC(C)(C)C)cc1 (stereo not given)	inconclusive: 15.8 µM [inhibitor, full curve, poor fit]	–
CN1CCN(C(CNC(=O)C(=O)Nc2ccccc2C#N)c2ccc3c(c2)OCO3)CC1 (stereo not given)	inactive	–
O=C(O)/C=C/c1cnc2ccccc2c1	inactive	–
Cn1c(NCc2ccco2)nc2c1c(=O)n(Cc1ccc(Cl)cc1)c(=O)n2C	inconclusive: 20 µM [inhibitor, full curve]	–
COc1ccc(-c2cc(-c3n[nH]c(=S)n3-c3cccc4ccccc34)[nH]n2)cc1	inconclusive: 28.2 µM [inhibitor, partial curve]	–
COc1cccc(C(=O)N(Cc2ccc(N(C)C)cc2)Cc2ccco2)c1	active: 22.4 µM	–
CCN(CC)C(=O)COC(=O)c1cc(-c2ccco2)nc2ccccc12	active: 22.4 µM	–
O=C(O)c1cc([N+](=O)[O-])ccc1NCc1ccccn1	active: 79.4 µM	–
CC(=O)N1c2ccc3ccccc3c2C2C=CCC2C1c1ccc(Br)cc1 (stereo not given)	inconclusive: 79.4 µM [inhibitor, single point]	–
COc1ccc(OC)c2c(C)cc(N3CCN(C(=O)c4ccc(C)cc4)CC3)nc12	active: 50.1 µM	–
